No constants are given. Whether binding was seen depends on the method and setting. In cells and extracts the contact can be indirect. Some entries that bind do so weakly or less than the wild type.
How the values were obtained:
[1] = biological target: TDP43^219 (Val^219-TDP43^f), C-terminal fragment of human TDP43, amino acids 219 - 414, bearing N-terminal Val and a C-terminal FLAG tag (human) (UniProt Q13148); test: co-IP; anti-TDP43 IP from the soluble fraction of BAG6-KO HEK293T cells co-expressing FLAG-tagged TDP43 fragment with exogenous BAG6 (and TRC35, UBL4a, RNF126); anti-FLAG immunoblot
[2] = biological target: TDP43^247 (Val^247-TDP43^f), C-terminal fragment of human TDP43, amino acids 247 - 414, bearing N-terminal Val and a C-terminal FLAG tag (human) (UniProt Q13148); test: as above
[3] = biological target: TDP43^219 (Val^219-TDP43^f), C-terminal fragment of human TDP43, amino acids 219 - 414, bearing N-terminal Val and a C-terminal FLAG tag (human) (UniProt Q13148); test: co-IP; anti-FLAG IP of C-terminally FLAG-tagged TDP43 fragments (or DHFR-Ub) from detergent-soluble and -insoluble (urea solubilized) fractions of HEK293T cells treated with MG132; endogenous BAG6 detected by anti-BAG6 blot; lysis/wash buffer 50 mM HEPES pH 7.5, 10% glycerol, 0.05% NP-40, 150 mM NaCl, 4°C
[4] = biological target: TDP43^247 (Val^247-TDP43^f), C-terminal fragment of human TDP43, amino acids 247 - 414, bearing N-terminal Val and a C-terminal FLAG tag (human) (UniProt Q13148); test: as above
[5] = biological target: BAG6, wild type, FLAG-tagged, exogenously overexpressed (pRK5-FLAG-Bag6) (UniProt P46379); test: co-IP; anti-BAG6 IP from soluble fractions of HEK293T cells overexpressing the fragments and BAG6 or BAG6ΔUBL; blots with anti-TDP43, anti-FLAG or anti-Myc; lysis/wash buffer 50 mM HEPES pH 7.5, 10% glycerol, 0.05% NP-40, 150 mM NaCl, 4°C

Amino acid sequences for entries named in this document (tags omitted).
UniProt P46379: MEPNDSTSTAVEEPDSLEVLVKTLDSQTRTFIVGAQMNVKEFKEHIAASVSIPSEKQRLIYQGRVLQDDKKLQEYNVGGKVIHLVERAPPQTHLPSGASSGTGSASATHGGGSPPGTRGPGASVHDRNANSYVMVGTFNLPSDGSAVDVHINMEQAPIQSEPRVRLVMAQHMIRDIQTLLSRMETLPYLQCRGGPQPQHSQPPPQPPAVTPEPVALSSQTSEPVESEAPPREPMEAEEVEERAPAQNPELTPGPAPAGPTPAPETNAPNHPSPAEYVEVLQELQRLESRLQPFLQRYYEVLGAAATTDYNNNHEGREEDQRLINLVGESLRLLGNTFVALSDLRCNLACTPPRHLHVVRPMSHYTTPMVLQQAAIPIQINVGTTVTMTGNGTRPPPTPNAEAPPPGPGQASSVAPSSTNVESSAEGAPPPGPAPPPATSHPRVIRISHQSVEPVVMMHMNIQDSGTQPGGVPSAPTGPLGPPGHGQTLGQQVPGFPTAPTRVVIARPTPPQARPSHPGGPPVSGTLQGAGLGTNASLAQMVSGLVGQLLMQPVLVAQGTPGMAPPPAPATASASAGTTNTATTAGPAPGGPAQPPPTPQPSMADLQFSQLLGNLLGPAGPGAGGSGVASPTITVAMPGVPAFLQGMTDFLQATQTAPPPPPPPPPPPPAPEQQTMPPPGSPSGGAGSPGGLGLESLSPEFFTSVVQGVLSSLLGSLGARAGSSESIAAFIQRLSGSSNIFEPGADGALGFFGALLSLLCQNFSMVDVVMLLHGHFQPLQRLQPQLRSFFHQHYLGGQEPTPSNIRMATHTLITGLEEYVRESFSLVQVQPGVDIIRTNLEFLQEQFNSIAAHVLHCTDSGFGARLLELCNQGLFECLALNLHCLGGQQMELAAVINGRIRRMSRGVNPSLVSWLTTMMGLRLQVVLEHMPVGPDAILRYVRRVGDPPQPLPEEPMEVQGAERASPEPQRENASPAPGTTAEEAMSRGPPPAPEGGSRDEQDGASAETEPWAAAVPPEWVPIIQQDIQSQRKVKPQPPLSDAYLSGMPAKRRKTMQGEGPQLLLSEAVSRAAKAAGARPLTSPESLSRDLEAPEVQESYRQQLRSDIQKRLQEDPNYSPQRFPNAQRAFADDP
UniProt Q7L5D6: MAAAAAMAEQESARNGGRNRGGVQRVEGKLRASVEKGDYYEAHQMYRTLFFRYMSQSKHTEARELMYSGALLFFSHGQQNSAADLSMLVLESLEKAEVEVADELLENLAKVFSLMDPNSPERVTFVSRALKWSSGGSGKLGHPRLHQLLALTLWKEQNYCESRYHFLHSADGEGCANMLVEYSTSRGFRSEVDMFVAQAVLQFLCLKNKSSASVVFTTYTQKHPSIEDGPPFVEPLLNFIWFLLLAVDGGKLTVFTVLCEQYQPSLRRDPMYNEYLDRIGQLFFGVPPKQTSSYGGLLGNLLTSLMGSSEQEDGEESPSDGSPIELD

| Substance | binding [1] | binding [5] | also measured |
| --- | --- | --- | --- |
| BAG6, wild type, FLAG-tagged, exogenously overexpressed (pRK5-FLAG-Bag6) (from UniProt P46379 1-1132) | binds | – | binding [2]: binds |
| Bcl-2 associated athanogene 6 (BAG6), endogenous (from UniProt P46379 1-1132) | – | – | binding [3]: binds; binding [4]: binds |
| TAR DNA-binding protein 43 (TDP43), endogenous, full-length (from UniProt Q13148 1-414) | – | no binding | – |
| TDP43^219 (Val^219-TDP43^f), C-terminal fragment of human TDP43, amino acids 219 - 414, bearing N-terminal Val and a C-terminal FLAG tag (from UniProt Q13148 219-414) (domain or fragment) | – | binds | – |
| TDP43^247 (Val^247-TDP43^f), C-terminal fragment of human TDP43, amino acids 247 - 414, bearing N-terminal Val and a C-terminal FLAG tag (from UniProt Q13148 247-414) (domain or fragment) | – | binds | – |
| transmembrane recognition complex 35 (TRC35), myc-FLAG-tagged (from UniProt Q7L5D6 1-327) | binds | – | – |

From paper PMC9079172
